Out of some 50,000 compounds screened, about 800 (1.6%) showed an effect of 50% or more. The list shows a part of the results.

The target in this assay is Bcl-2-like protein 10 (Homo sapiens) (UniProt Q9HD36). Briefly: TR3 peptide-Bcl-B binding displacers, biochemical primary FP assay, phenotype converters (AID 1240).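 Further: 0% = Bcl-B with tracer peptide and DMSO and 100% = tracer peptide lacking Bcl-B.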 The conditions noted are these: GST-Bcl-B / FITC-TR3 peptide fluorescence polarization; stronger effect = higher value; compound at 3.75 mg/L. For orientation: Polarisation of emitted light reports the rotation of a fluorescent probe.
UniProt Q9HD36, sequence (Q9HD36 whole entry, looked up): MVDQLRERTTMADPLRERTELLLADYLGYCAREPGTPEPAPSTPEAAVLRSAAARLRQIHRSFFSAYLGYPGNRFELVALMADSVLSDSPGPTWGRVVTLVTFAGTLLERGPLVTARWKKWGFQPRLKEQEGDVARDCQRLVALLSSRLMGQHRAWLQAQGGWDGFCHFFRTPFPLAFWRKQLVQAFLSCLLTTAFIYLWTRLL
On to `O=C1S/C(=C\c2ccc(O)cc2)C(=O)N1c1ccc(O)cc1`, for which the displacement came out at 11.8%.

For the compound `Cc1cc(C)cc(OCC(=O)NCC(C)CN(C)C)c1` (stereo unspecified), the displacement is -4.2%.

As to `N/C(Cc1ccc([N+](=O)[O-])cc1)=N\OC(=O)COc1ccc(Br)cc1`, the displacement is -8.6%.

Consider `O=C(O)c1ccccc1SC1CC(=O)N(c2ccc(F)cc2)C1=O` (stereo unspecified), for which the displacement stood at 8.3%.

`Cc1[nH][nH]c(=O)c1C(c1ccc(F)cc1)C(C#N)C#N` (stereo unspecified): the displacement was -5.4%.

For `Cc1no[n+]([O-])c1COc1cccc(/C=C2\SC(=S)NC2=O)c1`, the displacement is -27.6%.

For `CC(C(=O)c1ccc(Cl)cc1)[n+]1cccc(NC(=O)c2ccccc2)c1` (stereo unspecified), the displacement came to 4.8%.

On to `CCCCOc1ccc(NC(=O)c2cccc(Br)c2)cc1`, for which the displacement was -3.9%.

As to `COc1cccc(-n2c(O)c(C(c3ccccn3)c3c(O)n(-c4cccc(OC)c4)c(=O)[nH]c3=O)c(=O)[nH]c2=O)c1`, the displacement is 67.7%.

Take `CCOc1ccc(NC(=O)CSc2ccccn2)cc1`: the displacement is -1.3%.

Take `O=C1N=c2ccc(I)cc2=C1c1[nH]c(=S)[nH]c1O`: the displacement came to 5.9%.

As for `CS(=O)(=O)N(CC(=O)Nc1ccccc1Br)c1ccc(Oc2ccccc2)cc1`, the displacement is -1.1%.

As to `O=[N+]([O-])c1ccc(Cl)c(/C=N/N2CCN(Cc3cccc4ccccc34)CC2)c1`, the displacement is -15.6%.

In the case of `CC1C(=O)CC(c2ccco2)NC1c1ccco1` (stereo unspecified), the displacement was found to be 10.6%.

On to `Cc1cc(/C=C2/NC(=S)NC2=O)c(C)n1-c1ccc(Br)cc1`, for which the displacement is 12.1%.

For the compound `CN1CCN(C2=NC(=O)/C(=C/c3ccc(Cl)cc3Cl)S2)CC1`, the displacement is -7.5%.

Take `CCN(CC)S(=O)(=O)c1cccc(C(=O)Oc2ccc([N+](=O)[O-])cc2)c1`: the displacement is -10.3%.

On to `COCCOC(=O)c1c(C)oc2ccc(OCc3ccccc3Cl)cc12`, for which the displacement amounted to 5.4%.

Regarding `COCCNC(=O)C(=O)Nc1cc(Cl)ccc1C`, the displacement was -12.6%.

On to `O=C(O)CCCCCN1C(=O)C(=O)/C(=C(/O)c2ccccc2)C1c1ccccc1Cl` (stereo unspecified), for which the displacement was -7.2%.

Take `CC(C)C(=O)Nc1cccc(-c2nc3cc(Cl)cc(Cl)c3o2)c1`: the displacement turned out to be 40.5%.

As to `CC(C)OC(=O)NC(c1ccccc1)C(Cl)(Cl)Cl` (stereo unspecified), the displacement is -3.6%.

Consider `COC(=O)CN(c1ccccc1F)S(=O)(=O)c1ccccc1`, for which the displacement is -10.9%.

`O=C(Nc1cccc(C(F)(F)F)c1)c1ccc(OC2CSC2)cc1`: the displacement is -2.2%.

In the case of `COc1ccccc1OCC(=O)Nc1ccccc1C(=O)O`, the displacement was -0.4%.

`CCN1C(=O)/C(=C\c2ccc(-c3ccc(C)c(Cl)c3)o2)SC1=S`: the displacement is 10.5%.

In the case of `COC(=O)c1cccc(NC(=O)CSCc2ccccc2)c1`, the displacement turned out to be 11%.

As for `CCCOC(=O)c1ccc(N2C(=O)c3ccccc3C2=O)cc1`, the displacement is 5.5%.

Regarding `O=C(CN1CCCC1)NCC1COc2ccccc2O1` (stereo unspecified), the displacement was -12.7%.

As to `CCN(CC)c1ccc(NC(=O)Cc2ccccc2)cc1`, the displacement was determined as 0.6%.

In the case of `Cc1ccnc(NC(=O)C2CCCC2)c1`, the displacement is -7.8%.

On to `CC1(C)Cc2ccccc2C(=C(C#N)C#N)N1`, for which the displacement was -0.9%.

`O=C(NCc1ccc(Cl)c(Cl)c1)c1ccccc1F`: the displacement was -2.2%.

In the case of `Cc1cc(OCC(=O)Nc2ccc(Cl)c(-c3nc4ncccc4o3)c2)cc(C)c1Cl`, the displacement was -5.1%.

With `CCCNC(=O)CC12CC3CC(C1)CC(CC(=O)NCCC)(C3)C2`, the displacement was 7.5%.

In the case of `O=C(NC1CCCCC1)c1ccc(Br)o1`, the displacement was -0.6%.

For `CCc1ccc(/C=C2/C(=O)NN(c3ccc(C)cc3)C2=O)cc1`, the displacement came out at 8.6%.

With `CCCCSc1nnc2c(n1)OC(c1ccc(O)cc1)Nc1ccccc1-2` (stereo unspecified), the displacement amounted to 4.2%.

Take `CCN(CC)c1ccc(/C=N/NC(=O)c2nonc2N)c(OCc2ccc(Cl)cc2Cl)c1`: the displacement turned out to be 3.3%.

Regarding `COc1cccc(C2C(C(=O)Nc3ccccc3)=C(C)N=c3s/c(=C\c4ccc(O)cc4)c(=O)n32)c1` (stereo unspecified), the displacement was -6.7%.

Take `Cc1ccc(C(=O)O)cc1NC(=O)C(c1ccccc1)c1ccccc1`: the displacement was 1.4%.

`CCOC(=O)Nc1sc2c(c1C(=O)OCC)CCCCCC2`: the displacement was -9.7%.

For `COc1ccc2c(c1C)CCC/C2=N\OC(=O)c1cc(OC)c(OC)c(OC)c1`, the displacement is 9.4%.

`Cc1nnc(C)n1/N=C/c1ccc(-c2ccccc2)cc1`: the displacement is -1.5%.

On to `C[n+]1ccc(/C=C/c2cccc([N+](=O)[O-])c2)cc1`, for which the displacement was -8.7%.

As to `CCCC1=NN(C(=O)c2ccc(Br)cc2)C(O)(C(F)(F)F)C1` (stereo unspecified), the displacement came out at 4.5%.

As to `CCCC(=O)Nc1ccc(I)cc1Cl`, the displacement is -4.5%.

As for `CCOC(=O)c1c(NC(=O)c2ccc([N+](=O)[O-])cc2Cl)sc(C)c1C`, the displacement worked out at 1.9%.

With `CC(C)c1ccccc1NC(=O)C(C)N1C(=O)c2ccccc2C1=O` (stereo unspecified), the displacement is -7.2%.

Consider `Cc1ccc(-c2nc3ccccc3s2)cc1NC(=O)c1cccc([N+](=O)[O-])c1`, for which the displacement worked out at 23.9%.

On to `CC(=O)C1=C(O)C(=O)N(c2nc3ccccc3s2)C1c1ccc(O)cc1` (stereo unspecified), for which the displacement was determined as 0.5%.

In the case of `COc1ccccc1N1CCN(C(=O)C(Sc2ccccc2)c2ccccc2)CC1` (stereo unspecified), the displacement was -94%.

`Cc1ccc(S(=O)(=O)N2CCC(=O)C(C)C2)cc1` (stereo unspecified): the displacement stood at 15.2%.

For `CCCOc1ccc(C(=O)Nc2scc(-c3ccc(F)cc3)c2C(=O)OC)cc1`, the displacement amounted to 37%.

As to `COC(=O)/C(=C\Nc1cccc2ccccc12)[N+](=O)[O-]`, the displacement turned out to be 17.3%.

With `C/C(=N\OCc1nc2c3c4c(sc3ncn2n1)C(C)(C)NC(C)(C)C4)c1ccc(Br)cc1`, the displacement is 12.7%.

For `Cc1cccc(OCCn2cc(/C=C3/SC(=S)N(C)C3=O)c3ccccc32)c1`, the displacement came to 15.1%.

Turning to `CCCCOc1ccc(NC(=O)/C=C/c2ccc(OC)c(OC)c2)cc1`, the displacement is -1.6%.

As for `Cc1sc(NC(=O)CCC2CCCCC2)nc1-c1ccccc1`, the displacement is 0.5%.

As for `COc1ccc(NC2=C(Cl)C(=O)N(c3cccc(C)c3C)C2=O)cc1`, the displacement amounted to 8.8%.

`N#CC1(C(=O)Nc2ccc(C(=O)O)cc2)CC2c3ccccc3C1c1ccccc12` (stereo unspecified): the displacement was -4.7%.

On to `O=[N+]([O-])c1ccc(NCCNCCO)cc1`, for which the displacement stood at 10.9%.

For `Cc1sc2nc(-c3ccccc3)[nH]c(=O)c2c1C`, the displacement was -20.2%.

As for `c1ccc(-c2nc(-c3ccccn3)no2)cc1`, the displacement was -6.3%.

`CC(=O)c1ccc(NC(=O)COc2ccccc2[N+](=O)[O-])cc1`: the displacement was -6.2%.

Take `CCOc1ccccc1NC(=O)C(=O)NCc1ccc2c(c1)OCO2`: the displacement is -16.2%.

Consider `COc1ccc2nc(SCC(=O)Nc3ccc(C(C)=O)cc3)[nH]c2c1`, for which the displacement is 5.4%.

On to `Cc1ccc(S(=O)(=O)Nc2c(C)cc(O)c(S(=O)(=O)c3ccc(C)cc3)c2C)cc1`, for which the displacement was 7.2%.

As to `CCc1ccc(CN/C=C/C(=O)c2ccc(Br)cc2)cc1`, the displacement is -10.3%.

For the compound `COc1ccc(C(NC(=O)c2ccccc2)c2c(O)ccc3ccccc23)cc1` (stereo unspecified), the displacement stood at 4.7%.

`COc1cc(-c2ccc(NC(=O)c3ccc(F)cc3)c(OC)c2)ccc1NC(=O)c1ccc(F)cc1`: the displacement worked out at 1.6%.

The values are drawn from PubChem BioAssay AID1240 (Sanford-Burnham Center for Chemical Genomics, 2008).
